The results in this text go back to article PMC4336329 (PLoS ONE, 2015).

The campaign covered roughly 310,000 compounds. About 14,000 (4.5%) showed an effect of 50% or more. Effects have a minus sign here. The list shows a part of the results.
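Also: peak tail current of the secondary pulse compared with the same well before compound.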

The target of this assay is human ether-à-go-go-related gene (hERG) potassium channel (human, UniProt Q12809). The assay is described as follows: primary screen, population patch clamp on CHO cells stably expressing hERG.
human ether-à-go-go-related gene (hERG) potassium channel, sequence (Q12809 whole entry, looked up): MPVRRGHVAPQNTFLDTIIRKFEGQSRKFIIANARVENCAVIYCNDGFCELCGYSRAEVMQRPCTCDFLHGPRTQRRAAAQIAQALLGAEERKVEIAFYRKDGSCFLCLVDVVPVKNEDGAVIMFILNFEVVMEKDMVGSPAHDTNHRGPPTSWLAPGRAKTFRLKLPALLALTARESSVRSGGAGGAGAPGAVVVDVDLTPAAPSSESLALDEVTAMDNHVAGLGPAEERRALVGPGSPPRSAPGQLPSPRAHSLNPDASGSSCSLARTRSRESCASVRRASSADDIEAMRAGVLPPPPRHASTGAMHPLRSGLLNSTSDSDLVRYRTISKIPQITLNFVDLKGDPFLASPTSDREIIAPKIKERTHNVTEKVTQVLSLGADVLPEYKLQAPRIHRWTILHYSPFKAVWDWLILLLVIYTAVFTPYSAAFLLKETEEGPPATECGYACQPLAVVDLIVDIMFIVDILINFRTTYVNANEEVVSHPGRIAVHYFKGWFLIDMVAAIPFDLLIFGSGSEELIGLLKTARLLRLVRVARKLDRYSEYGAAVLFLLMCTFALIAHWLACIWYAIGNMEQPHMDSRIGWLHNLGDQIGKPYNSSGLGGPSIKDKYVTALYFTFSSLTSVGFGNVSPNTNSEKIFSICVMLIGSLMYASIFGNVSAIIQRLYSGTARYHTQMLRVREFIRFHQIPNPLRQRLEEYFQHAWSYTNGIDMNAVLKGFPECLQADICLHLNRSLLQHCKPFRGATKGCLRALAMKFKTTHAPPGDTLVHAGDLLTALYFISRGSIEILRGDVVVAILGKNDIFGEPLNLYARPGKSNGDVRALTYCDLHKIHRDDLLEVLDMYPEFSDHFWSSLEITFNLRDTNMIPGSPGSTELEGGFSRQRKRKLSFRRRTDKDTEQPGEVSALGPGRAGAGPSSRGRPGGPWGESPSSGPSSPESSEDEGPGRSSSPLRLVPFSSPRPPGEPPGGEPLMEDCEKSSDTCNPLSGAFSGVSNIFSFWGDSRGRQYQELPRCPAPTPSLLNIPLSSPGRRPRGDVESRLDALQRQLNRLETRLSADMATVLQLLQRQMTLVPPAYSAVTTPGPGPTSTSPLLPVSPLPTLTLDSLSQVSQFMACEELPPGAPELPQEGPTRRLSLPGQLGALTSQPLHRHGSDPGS
Take `Cc1ccc(NC(=O)c2cc(=O)[nH]c3ccc(S(=O)(=O)N4CCOCC4)cc23)cc1`: the “hERG current change (%, negative = inhibition) at 10uM” value was 0.283%.
Take `COc1cc(Cc2ccc(N)c(OC)c2)ccc1N`: the “hERG current change (%, negative = inhibition) at 10uM” value worked out at 11.1%.
Take `CCN=C1S/C(=C\c2cc(Cl)c(OC)c(OC)c2)C(=O)N1CC`: the “hERG current change (%, negative = inhibition) at 10uM” value is listed as 13.4%.
As for `Cc1ccc(S(=O)(=O)NNC(=O)Nc2ccc(Cl)c(Cl)c2)cc1`, the “hERG current change (%, negative = inhibition) at 10uM” value was found to be 8.35%.
As to `CN1CCOc2cc(S(=O)(=O)NCc3ccc(S(N)(=O)=O)cc3)ccc21`, the “hERG current change (%, negative = inhibition) at 10uM” value is on record as 24.5%.
The same measure for `Cc1ccccc1CN1C(=O)/C(=C\c2ccc(C(=O)NCCN3CCOCC3)cc2)Sc2ccccc21`: 1.97%.
The same measure for `CC(C)CN(C(=O)COC(=O)Cn1cnc2ccccc2c1=O)C1CCS(=O)(=O)C1` (stereo not drawn): 21.2%; for `Cc1cc(S(=O)(=O)NCc2ccccc2)ccc1OCC(=O)NCC1CCCO1` (stereo not drawn): -6.68%.
To `Cc1ccc(-n2c(O)c(C=NCc3ccccn3)c3ccccc3c2=O)cc1` belongs -3.79%; to `COc1ccccc1/C=N\NC(=O)c1c(C)nc2ccc(Cl)cn12`, -12.8%; to `COc1cc2[nH]c(=O)n(CCCCCC(=O)NCCCN3CCC(C)CC3)c(=O)c2cc1OC`, 18.8%.
`COc1cc(OC)c(NC(=O)c2csc(C)c2)cc1Cl`: the “hERG current change (%, negative = inhibition) at 10uM” value worked out at 14.2%.
The same measure for `Cc1ccc(CN2CCN(Cc3cccc4nccnc34)CC2CCO)cc1` (stereo not drawn): -66.6%.
As to `CC(C)(C)c1csc(NC(=O)c2ccncc2)n1`, the “hERG current change (%, negative = inhibition) at 10uM” value was -33.7%.
The same measure for `C#CCOCCOCCOCCNc1nc(N2CCN(C(=O)CCCCCCCCCCNC(=O)[C@H](CCCCN)n3cc(CCO)nn3)CC2)nc(N2CCN(C(=O)CCCCCCCCCCNC(=O)[C@@H]([C@H](C)O)n3cc(C)nn3)CC2)n1`: 0.574%.
To `COc1cc(C=O)ccc1OCCCOc1ccccc1[N+](=O)[O-]` belongs 7.71%.
`COc1cc(C(=O)N/N=C(\C)Cn2nc([N+](=O)[O-])cc2C)ccc1O`: the “hERG current change (%, negative = inhibition) at 10uM” value was -21.1%.
For the compound `COc1ccccc1NC(=O)CSc1nnnn1C`, the “hERG current change (%, negative = inhibition) at 10uM” value was 10.1%.
To `O=C(NCC(=O)N(CC1CCCO1)C(C(=O)NC1CCCC1)c1cccnc1)c1ccco1` (stereo not drawn) belongs 22.4%; to `COC(=O)c1c(NC(=O)CN2CCCC(C)C2)c2c(C)cccc2n1C` (stereo not drawn), -16.8%; to `O=C(CC1NCCNC1=O)Nc1ccc2c(c1)OCCO2` (stereo not drawn), -1.54%.
The same measure for `O=c1c2c3nc4ccccc4nc3n(-c3ccc4c(c3)OCCO4)c2ncn1C1CCCC1`: 4.93%; for `CCOC(=O)C1(CCOc2ccccc2)CCN(Cc2ccc(C(=O)OC)cc2)CC1`: -49.9%; for `COC(=O)[C@@]12CCCN1[C@H](c1ccc(-c3ccc(F)cc3)c(OC)c1)[C@H]1C(=O)N(C)C(=O)[C@H]12.O=C(O)C(F)(F)F`: -33%.
The same measure for `CC1(C)CN2C(c3ccc(Cl)cc3)N2C1` (stereo not drawn): 11%.
Turning to `COCCOC(=O)C1=C(C)OC(N)=C(C#N)C1c1cc2cccc(C)c2nc1Cl` (stereo not drawn), the “hERG current change (%, negative = inhibition) at 10uM” value is -13.8%.
The same measure for `Cc1ccc2c(c1)c1c3n2CCN=C3CCC1.Cl`: -76.3%; for `CSc1ccc(OC2CCCCC2NS(=O)(=O)c2ccccc2)cc1` (stereo not drawn): 10.6%.
Regarding `Cc1ccc(OCC(=O)Nc2ccc(-c3nnc(-c4ccco4)o3)cc2)cc1`, the “hERG current change (%, negative = inhibition) at 10uM” value is listed as 10.3%.
The same measure for `O=C(Nc1ccc(F)c(Cl)c1)C1CC(=O)N(Cc2ccccc2)C1` (stereo not drawn): -1.29%; for `O=C(CSc1ccc(-c2ccccc2)nn1)Nc1ccc2c(c1)OCCO2`: -17.9%.
The same measure for `CCn1cc(C(=O)O)c(=O)c2cc(F)c(N3CCN(C(=S)NC(=O)c4ccccc4Cl)CC3)cc21`: -9.5%; for `Fc1ccc(CO/N=C/C2=C(Cl)c3ccccc3CC2)cc1`: 18.3%.
The same measure for `N#Cc1ccc2ccn(CC(=O)NC3CCCCCC3)c2c1`: 9.58%; for `CCOCCCNC(=S)NCCNc1nc2ccc(C)cc2cc1C#N`: -5.14%.
For the compound `CCN1CCN(c2nc3c(C)cccn3c(=O)c2/C=C(\C#N)S(=O)(=O)c2ccc(C)cc2)CC1`, the “hERG current change (%, negative = inhibition) at 10uM” value is reported as -62.9%.
`COc1cccc(/C=C/C(=O)N2CCN(c3n[nH]c(=O)[nH]c3=O)CC2)c1OC`: the “hERG current change (%, negative = inhibition) at 10uM” value came out at 14.8%.
For the compound `COP(=O)(OC)C(NC(C)=O)C(Cl)(Cl)Cl` (stereo not drawn), the “hERG current change (%, negative = inhibition) at 10uM” value is 15.3%.
The same measure for `Cc1nn(C(C)C(=O)NCCCN2CCCCCC2)c(=O)c2cc3sccc3n12` (stereo not drawn): -4.89%; for `CC(C)CC(Nc1ncnc2scc(-c3ccccc3)c12)C(=O)O` (stereo not drawn): 0.287%.
The same measure for `COC(=O)CC/C(O)=C1\C(=O)CC(C)(C)CC1=NCc1nc2ccccc2[nH]1`: 0.594%; for `O=C(N/N=C/c1c(O)n(-c2ccccc2)c(=S)[nH]c1=O)c1ccccc1`: 12.8%.
To `CN(c1cccc(Cl)c1)S(=O)(=O)c1cccc(C(=O)NCc2ccncc2)c1` belongs -28.6%; to `CC1CCN(CCCNC(=O)Cn2ncc3c([nH]c4ccccc43)c2=O)CC1`, 9.35%.
As to `COc1cc(S(=O)(=O)N2CCCCC2)c(OC)cc1Br`, the “hERG current change (%, negative = inhibition) at 10uM” value was determined as 8.93%.
The same measure for `COc1ccc(NC(=O)CC2CCCCC2)cc1OC`: -3.7%; for `Cc1ccc(-n2c(C)nnc2SCC(=O)NC2CCCC2)cc1`: -4.89%.
The same measure for `CCN(C(=O)CSc1nnc(C(C)N(C)C)n1-c1ccc(F)cc1)C1CCS(=O)(=O)C1` (stereo not drawn): 4.62%.
The same measure for `CC(=O)NCCOC(=O)Nc1cccnc1`: 12.9%; for `CC(=O)c1sc(NC(=O)CN2C(=O)C3CCCCC3C2=O)nc1-c1ccccc1` (stereo not drawn): -19.5%; for `CC(C)C(=O)N1CCN(c2ccccc2NC(=S)NC(=O)c2cccs2)CC1`: -2.66%.
Turning to `Cc1cccnc1NC(=O)c1ccc(Cl)c(S(=O)(=O)N2CCCCCC2)c1`, the “hERG current change (%, negative = inhibition) at 10uM” value is -65.5%.
The same measure for `O=C1CCC([N+](=O)[O-])C(c2cccc([N+](=O)[O-])c2)N1` (stereo not drawn): 8.88%; for `CCCc1cc(=O)[nH]c(SCC(=O)Nc2nonc2C)n1`: 4.4%.
